Article PMC6716783, “Agonist-induced membrane nanodomain clustering drives GLP-1 receptor responses in pancreatic beta cells” (PLoS Biology, 2019)

How the values were obtained:
[1] = target: T1, SNAP-GLP-1R in INS-1 832/3 GLP-1R−/− cells (Homo sapiens, UniProt P43220); experiment: SNAP-GLP-1R clustering by TR-FRET (HTRF); format: cell-based
[2] = target: T1, SNAP-GLP-1R in INS-1 832/3 GLP-1R−/− cells; experiment: FITC-ligand uptake by TR-FRET; format: cell-based
[3] = target: T1, SNAP-GLP-1R in INS-1 832/3 GLP-1R−/− cells; experiment: TR-FRET ligand binding (equilibrium and kinetic)

T1 sequence (P43220 24-463): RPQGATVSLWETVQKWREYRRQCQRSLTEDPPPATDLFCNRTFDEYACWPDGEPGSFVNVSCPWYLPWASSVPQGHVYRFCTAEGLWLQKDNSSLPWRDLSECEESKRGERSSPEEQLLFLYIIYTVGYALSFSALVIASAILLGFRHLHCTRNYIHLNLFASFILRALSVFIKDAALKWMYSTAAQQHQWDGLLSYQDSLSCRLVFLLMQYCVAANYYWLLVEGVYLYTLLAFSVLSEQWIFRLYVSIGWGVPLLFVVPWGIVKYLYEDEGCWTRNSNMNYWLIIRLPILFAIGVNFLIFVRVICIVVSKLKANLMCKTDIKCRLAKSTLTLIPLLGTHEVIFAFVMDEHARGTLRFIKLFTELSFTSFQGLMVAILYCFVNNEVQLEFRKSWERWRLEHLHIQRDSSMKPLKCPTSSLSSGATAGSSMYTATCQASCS

Compound	SNAP-GLP-1R clustering, compound alone (in words) ([1]; BETP (10 μM) or exendin-phe1 (100 nM) alone)	remaining ligand uptake at maximal MβCD (in words) ([2]; Fig 2G and 2H)	LogEC50 ([2]; Fig 2G, effect of MβCD concentration on uptake of exendin-4-K12-FITC, log of MβCD concentration (mM), n=5)	LogEC50 ([1]; Fig 2B, effect of MβCD concentration (45 min) on clustering induced by 100 nM exendin-4, log of MβCD concentration (mM), n=5)	effect on maximal exendin-4-induced clustering (in words) ([1]; MβCD pretreatment)	effect on agonist dissociation (in words) ([3]; MβCD 10 mM, 45 min, exendin-4-K12-FITC)	effect on binding affinity of exendin-4-K12-FITC (in words) ([3]; MβCD pretreatment)
CC[S+]([O-])c1nc(-c2cccc(OCc3ccccc3)c2)cc(C(F)(F)F)n1 (stereo not shown) [BETP, 4-(3-benzyloxyphenyl)-2-ethylsulfinyl-6-(trifluoromethyl)pyrimidine]	marginal	–	–	–	–	–	–
methyl-β-cyclodextrin [MβCD]	–	some remaining receptor-mediated agonist uptake detected even at maximal doses of MβCD	0.6	0.7	reduced maximal exendin-4-induced GLP-1R clustering	faster agonist dissociation	reduced by MβCD in a dose-dependent manner
